According to PMC4336329 (PLoS ONE, 2015):
About 14,000 (4.5%) of roughly 310,000 compounds showed an effect of 50% or more. The effect is printed as a negative number. The list shows a part of the results.

These compounds were tested against human ether-à-go-go-related gene (hERG) potassium channel (human, UniProt Q12809) (assay: primary screen, population patch clamp on CHO cells stably expressing hERG).
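Further: peak tail current of the secondary pulse compared with the same well before compound.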

human ether-à-go-go-related gene (hERG) potassium channel, sequence (Q12809 whole entry, looked up): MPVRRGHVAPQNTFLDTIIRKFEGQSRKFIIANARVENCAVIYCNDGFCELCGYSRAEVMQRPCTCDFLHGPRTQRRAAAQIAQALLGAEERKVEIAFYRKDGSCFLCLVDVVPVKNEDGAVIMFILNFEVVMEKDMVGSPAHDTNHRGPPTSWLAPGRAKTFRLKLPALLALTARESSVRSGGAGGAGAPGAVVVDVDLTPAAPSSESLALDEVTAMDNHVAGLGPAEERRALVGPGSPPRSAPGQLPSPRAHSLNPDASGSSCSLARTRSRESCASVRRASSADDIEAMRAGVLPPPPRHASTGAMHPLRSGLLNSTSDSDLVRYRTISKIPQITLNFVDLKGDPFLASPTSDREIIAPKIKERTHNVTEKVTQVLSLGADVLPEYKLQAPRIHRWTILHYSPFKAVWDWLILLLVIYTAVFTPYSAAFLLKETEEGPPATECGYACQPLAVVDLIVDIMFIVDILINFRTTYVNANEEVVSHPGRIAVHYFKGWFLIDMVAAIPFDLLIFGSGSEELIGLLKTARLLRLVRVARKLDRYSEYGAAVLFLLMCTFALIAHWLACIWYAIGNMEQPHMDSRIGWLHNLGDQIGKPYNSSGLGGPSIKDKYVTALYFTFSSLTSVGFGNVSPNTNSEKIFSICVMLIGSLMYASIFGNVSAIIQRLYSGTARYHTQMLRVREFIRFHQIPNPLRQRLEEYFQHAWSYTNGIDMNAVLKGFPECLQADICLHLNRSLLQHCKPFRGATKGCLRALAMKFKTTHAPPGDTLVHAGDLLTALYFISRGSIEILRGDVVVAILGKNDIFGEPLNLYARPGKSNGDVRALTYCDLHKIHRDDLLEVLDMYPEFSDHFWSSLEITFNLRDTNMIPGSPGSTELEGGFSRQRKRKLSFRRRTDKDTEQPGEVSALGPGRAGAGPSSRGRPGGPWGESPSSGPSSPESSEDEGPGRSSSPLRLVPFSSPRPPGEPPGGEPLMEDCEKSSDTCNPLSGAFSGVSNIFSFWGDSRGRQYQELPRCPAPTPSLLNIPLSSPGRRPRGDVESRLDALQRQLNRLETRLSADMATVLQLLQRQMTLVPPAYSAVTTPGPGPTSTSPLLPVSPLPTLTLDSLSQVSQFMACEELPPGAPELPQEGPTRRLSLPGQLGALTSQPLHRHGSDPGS

For `O=c1c2ccccc2nc(COc2ccccc2)n1/N=C/c1cc([N+](=O)[O-])ccc1O`, which “hERG current change (%, negative = inhibition) at 10uM” value is on record?
Its value is 0.659%.

`c1ccc(Cn2nnc3c(N4CCOCC4)ncnc32)cc1` was tested. Which “hERG current change (%, negative = inhibition) at 10uM” value did it give?
The value was 2.85%.

How did the “hERG current change (%, negative = inhibition) at 10uM” value turn out when `Cc1ccc([N+](=O)[O-])cc1-c1[nH]c(-c2ccc(O)c(O)c2)nc1-c1ccccc1` was run?
The value was -1.31%.

With `Cc1cc(CSc2ccccc2)ccc1NC(=O)c1ccc(Br)cc1` as the compound, how does the “hERG current change (%, negative = inhibition) at 10uM” value read?
Its value is -3.72%.

For `Cc1ccc(-c2nnn(CC(=O)N3CCCCC3)n2)cc1`, which “hERG current change (%, negative = inhibition) at 10uM” value is on record?
The value was 3.07%.

For `O=C(Nc1ccccc1N1CCN(C(=O)c2ccccc2)CC1)c1ccccc1Cl`, which “hERG current change (%, negative = inhibition) at 10uM” value is on record?
The value was -78.8%.

For `O=C(CCC(=O)N1CCOCC1)Nc1ccc(Cl)c(Cl)c1`, which “hERG current change (%, negative = inhibition) at 10uM” value is on record?
The value was 0.392%.

Which “hERG current change (%, negative = inhibition) at 10uM” value does the source give for `CCOc1ccc(NC(=S)N(CCCN2CCCC2)Cc2cccn2Cc2ccc(Cl)cc2)cc1` here?
The value was -58.4%.

`O=C(Nn1cnnc1)c1ccc([N+](=O)[O-])cc1` was tested. Which “hERG current change (%, negative = inhibition) at 10uM” value did it give?
The value was 25.9%.

With `COc1ccccc1CNC(=O)C(=O)Nc1ccc(C(=O)N2CCC(C)CC2)cc1` as the compound, how does the “hERG current change (%, negative = inhibition) at 10uM” value read?
Its value is -7.35%.

With `Cc1onc(-c2c(Cl)cccc2Cl)c1COC(=O)c1ccc([N+](=O)[O-])cc1` as the compound, how does the “hERG current change (%, negative = inhibition) at 10uM” value read?
Its value is 8.05%.

Which “hERG current change (%, negative = inhibition) at 10uM” value does the source give for `COc1ccc(-c2nc(CS(=O)CC(=O)NCCc3ccc(C)cc3)c(C)o2)cc1OC` (stereo not drawn) here?
The value was -3.12%.

How did the “hERG current change (%, negative = inhibition) at 10uM” value turn out when `Cc1cc(N(CC(=O)NC(C)C)S(C)(=O)=O)ccc1Br` was run?
The value was 16.4%.

Which “hERG current change (%, negative = inhibition) at 10uM” value does the source give for `CC(C)C(=O)NC(=S)/C=C1/N(C)c2ccccc2C1(C)C` here?
Its value is -1.42%.

With `COc1ccc(NC(=O)Cc2coc3ccc4ccccc4c23)cc1S(=O)(=O)N1CCOCC1` as the compound, how does the “hERG current change (%, negative = inhibition) at 10uM” value read?
The value was -14.8%.

For `O=C(NCc1cccnc1)C(=O)Nc1nc2ccccc2s1`, which “hERG current change (%, negative = inhibition) at 10uM” value is on record?
Its value is 3.9%.

`Cc1ccc(C(C)NC(=O)COC(=O)C2=COCCO2)cc1C` (stereo not drawn) was tested. Which “hERG current change (%, negative = inhibition) at 10uM” value did it give?
Its value is -10.5%.

For `CC(C)Oc1ccccc1C1Nc2ccccc2C(=O)N1c1ccc2c(c1)OCCO2` (stereo not drawn), which “hERG current change (%, negative = inhibition) at 10uM” value is on record?
The value was 3.43%.

With `CC1Cc2ccccc2N1C(=O)CSc1nnnn1C(C)C` (stereo not drawn) as the compound, how does the “hERG current change (%, negative = inhibition) at 10uM” value read?
Its value is -2.17%.

With `Cc1cc(C)nc(SCCn2c(N3CC(C)OC(C)C3)nc3c2c(=O)n(C)c(=O)n3C)n1` (stereo not drawn) as the compound, how does the “hERG current change (%, negative = inhibition) at 10uM” value read?
The value was 6.38%.

For `COc1cc(/C=N/NC(=O)c2cc3ccccc3[nH]2)ccc1O`, which “hERG current change (%, negative = inhibition) at 10uM” value is on record?
Its value is 6.64%.

For `CCOc1ccc(CN(C)C(=O)CNC(=O)C2CCCCC2)cc1`, which “hERG current change (%, negative = inhibition) at 10uM” value is on record?
The value was 16.8%.

With `O=C(N/N=C/c1cccn1-c1ccccc1)c1ccncc1` as the compound, how does the “hERG current change (%, negative = inhibition) at 10uM” value read?
Its value is 26.2%.

`CCn1c(CN2c3ccccc3Sc3ccccc32)n[nH]c1=S` was tested. Which “hERG current change (%, negative = inhibition) at 10uM” value did it give?
The value was 20.8%.
